Among all 350,000 compounds or so, about 260 (0.074%) were called active. The inconclusive results got no clear call from the source; some entries with a clear call stand among them for comparison. Calls come from the whole dose curve; as a rule, active = well fitted inhibition curve with a large enough effect; inconclusive = small, poorly fitted or top-dose-only effect; inactive = no such curve, though single readings can be large or run the other way. Where the call is inconclusive, the potency comes from a doubtful curve fit.
Target: Ferritin light chain (Equus caballus) (UniProt P02791)
UniProt P02791, sequence (P02791 whole entry, looked up): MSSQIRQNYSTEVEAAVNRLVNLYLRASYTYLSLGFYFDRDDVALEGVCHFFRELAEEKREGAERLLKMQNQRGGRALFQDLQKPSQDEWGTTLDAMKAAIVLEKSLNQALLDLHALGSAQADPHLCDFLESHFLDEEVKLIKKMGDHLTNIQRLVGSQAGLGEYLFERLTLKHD
Test: qHTS Assay for Identification of Novel General Anesthetics; note: nearly all actives have a fitted effect of over 20% in size
Conditions: apoferritin/1-aminoanthracene competitive binding, fluorescence; series mostly up to 77.5 µM
Summary of the method: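 10 uM apoferritin + 50% sat. 1-AMA, PBS; cpd 10 min RT; Ex380/Em535 endpoint; normalized to free probe vs complex; 4-param Hill fit; propofol titration as pos. ctrl.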
Potency is the fitted concentration of half-maximal effect; tags give direction and shape of the fitted curve.

Compound | Potency
Cc1cccc2cc(CN(Cc3ccco3)C(c3nnnn3CCc3ccccc3)C(C)C)c(=O)[nH]c12 (stereo unspecified) | inconclusive: 0.891 µM [inhibitor, full curve, poor fit]
COc1ccc(NC(=O)CSc2nnc(-c3ccccc3C)n2N)cc1 | inconclusive: 28.2 µM [inhibitor, partial curve]
COc1ccc(N(CC(=O)Nc2ccccc2C)S(=O)(=O)c2c(C)[nH]c(=O)[nH]c2=O)cc1 | inactive
Cc1ccccc1Cn1nnc2sc3c(c2c1=O)CCCC3 | inconclusive: 8.91 µM [inhibitor, partial curve]
Cc1cccc(NC(=S)N(CCCN2CCOCC2)Cc2ccco2)c1 | inconclusive: 35.5 µM [inhibitor, partial curve]
O=C(O)c1nnn(-c2cc(C(F)(F)F)cc(C(F)(F)F)c2)c1-c1ccccc1 | inconclusive: 39.8 µM [inhibitor, single point]
Nc1nnc(SCc2ccc(F)cc2Cl)s1 | inconclusive: 39.8 µM [inhibitor, partial curve]
Cc1ccc(/C=C/C(=O)c2ccccc(=O)c2O)c(C)c1 | inconclusive: 50.1 µM [inhibitor, single point]
COc1ccc(C(=O)NCCc2csc(-c3ccc(Cl)cc3)n2)cc1 | inconclusive: 25.1 µM [inhibitor, partial curve]
O=C(COC(=O)c1ccc2ccccc2n1)Nc1ncc(C(F)(F)F)cc1Cl | inconclusive: 39.8 µM [inhibitor, partial curve]
N#CC(C#N)=C1C(=O)N(CCN2CCOCC2)c2ccccc21 | inactive
NC(=O)c1cc(N2C(=O)C3CC=CCC3C2=O)ccc1N1CCCCC1 (stereo unspecified) | inconclusive: 35.5 µM [inhibitor, partial curve]
CCCSC1=N/C(=C\C=C\c2ccco2)C(=O)S1 | inconclusive: 28.2 µM [inhibitor, partial curve]
COc1ccc(-c2ccc(OC)c(C3C4C=CCCC4(C)C(=O)N3Cc3ccccc3)c2)cc1 (stereo unspecified) | inactive
O=c1cc(-c2ccco2)oc2ccc(Cl)cc12 | inactive
CCOc1cc(C2C(C(=O)OCC(C)C)=C(C)N=C3SCCC(=O)N32)ccc1OC(C)=O (stereo unspecified) | inconclusive: 39.8 µM [inhibitor, partial curve]
COc1ccc(C(NC(C)=O)c2ccc3cccnc3c2O)c(OC)c1 (stereo unspecified) | inactive
COc1cccc(NC2CC(=O)N(CCc3ccccc3)C2=O)c1 (stereo unspecified) | inconclusive: 25.1 µM [inhibitor, partial curve]
O=C(NCc1ccc(F)cc1)c1cccs1 | inconclusive: 31.6 µM [inhibitor, single point]
Cc1cccc(N2CCN(C(=O)C(C)n3nc(C)n4c(cc5occc54)c3=O)CC2)c1C (stereo unspecified) | inconclusive: 11.2 µM [inhibitor, single point]
O=C(CC1C(=O)NCCN1Cc1c(F)cccc1Cl)NCc1ccccc1 (stereo unspecified) | inconclusive: 28.2 µM [inhibitor, partial curve]

Compound | Potency
O=C(O)/C=C/C(=O)Nc1ccc(-c2ccccc2)cc1 | inconclusive: 22.4 µM [inhibitor, partial curve]
O=C(COC(=O)CCC(=O)c1ccc(F)cc1)Nc1ccc(F)cc1F | inconclusive: 15.8 µM [inhibitor, partial curve]
Cc1cc(C)c(NC(=O)CN2C(=O)C3(SCC(=O)N3c3ccc(F)cc3)c3ccccc32)c(C)c1 (stereo unspecified) | inconclusive: 28.2 µM [inhibitor, partial curve, poor fit]
CN(Cc1ccccc1)c1ncnc(N)c1[N+](=O)[O-] | inconclusive: 35.5 µM [inhibitor, partial curve]
COc1ccc(N=C2S/C(=C\c3cc(C)n(C)c3C)C(=O)N2CC(C)C)cc1 | inconclusive: 10 µM [inhibitor, full curve]
Cc1ccc(S(=O)(=O)N2CCCc3cc(NS(=O)(=O)c4ccc(F)cc4)ccc32)cc1 | inconclusive: 10 µM [inhibitor, single point]
CC(C)CCNC(=O)C12CN(Cc3ccccc3)CC1C(c1cccc([N+](=O)[O-])c1)=NO2 (stereo unspecified) | inconclusive: 28.2 µM [inhibitor, partial curve]
CN(CCCC(=O)Nc1ccccc1)S(=O)(=O)c1ccc(Cl)cc1 | inconclusive: 25.1 µM [inhibitor, partial curve]
CSc1nc(C)cc(/C=C\c2ccccc2)c1C#N | inactive
O=C(COC(=O)/C=C/c1ccc2c(c1)OCO2)Nc1ccc(S(=O)(=O)N2CCCC2)cc1 | inconclusive: 11.2 µM [inhibitor, partial curve]
Cc1cccc(Nc2ccc([N+](=O)[O-])cc2C(=O)O)c1 | inconclusive: 39.8 µM [inhibitor, partial curve]
COc1ccc(Oc2ccccc2C#N)cc1 | inconclusive: 28.2 µM [inhibitor, partial curve]
COc1ccc(CC(=O)Nc2ccc3nc(Nc4cccc(Cl)c4)cc(C)c3c2)cc1 | inactive
COc1ccc(/C=C/C(=O)Nc2cc(C)on2)cc1 | inactive
Cc1ccc(C(=O)N2CCN(c3ccc(NC(=S)NC(=O)c4cccs4)cc3)CC2)cc1 | inconclusive: 17.8 µM [inhibitor, partial curve]
CCOC(=O)C1Sc2[nH]c(=O)sc2C(c2ccc(Cl)cc2)C1C(=O)OCC (stereo unspecified) | inconclusive: 31.6 µM [inhibitor, partial curve]
COc1cc(NC(=O)C2=CC(c3ccc(C)cc3)=NS(=O)(=O)N2C)cc(OC)c1OC | inconclusive: 15.8 µM [inhibitor, partial curve]
Brc1ccc(CSc2ccc3nnc(-c4cccnc4)n3n2)cc1 | inconclusive: 15.8 µM [inhibitor, partial curve]
O=C(CCc1nnc(CCC2CCCCC2)o1)NCCn1cccn1 | inconclusive: 28.2 µM [inhibitor, partial curve]
COc1cccc(-c2ccc(NC(=O)C3CCCN(Cc4ccc(CO)o4)C3)cc2)c1 (stereo unspecified) | inconclusive: 35.5 µM [inhibitor, single point]
